# According to PMC6212790:
# Some of the results follow. At the low end of the ranking the order means little.
# Biological target: T1, GST-Rok-C97-191 (UniProt O34857)
# T1 sequence: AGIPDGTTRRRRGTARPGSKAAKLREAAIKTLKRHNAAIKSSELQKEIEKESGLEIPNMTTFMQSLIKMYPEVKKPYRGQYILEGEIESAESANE
# Test: protein binding microarray;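 further: rank score from −0.5 (least bound) to 0.5 (best bound)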
# Settings: Rok is a gene silencer of Bacillus subtilis; high values mean tight binding; most listed sequences are background and not binding sites; double strand, one strand shown
row,Sequence,binding signal [E-score]
1,CGTCCGAA,-0.115
2,CCTCGAAA,-0.00929
3,CGTGATGA,-0.0667
4,AGGACTAT,0.145
5,CGCACCTA,0.037
6,CTAGAAGC,-0.138
7,AAATTCTT,0.105
8,CGAGGTCC,-0.0508
9,GCGATTCA,-0.0584
10,AATCGATT,-0.107
11,CATTTCAA,0.114
12,CAACCGAA,0.0469
13,AAGTCACA,-0.000968
14,CACTTAGC,0.0257
15,CCAGCCCC,-0.338
16,AACGACTG,-0.182
17,AGGCCATC,-0.164
18,CGGCACGA,-0.274
19,TACCCAAA,0.0353
20,AACCCCTC,-0.123
21,CGGGCATA,-0.0964
22,ATTTCTTA,0.151
23,ACATGCTC,0.0356
24,AATGCGAA,0.0558
25,CTAGCATC,0.141

row,Sequence,binding signal [E-score]
1,CGCTTGCC,-0.202
2,GTGACCCA,-0.0919
3,GACATGCA,-0.183
4,CCTCCTCA,-0.178
5,TAGAAGCA,0.197
6,CTATCCAA,-0.0742
7,AACCGTGT,-0.0625
8,TGCACAAA,-0.0954
9,CAAGACCC,-0.281
10,CGAGCCAG,-0.244
11,CAAGATTA,0.0918
12,ATGCCAAA,-0.208
13,AGTATTCC,-0.0921
14,GTACCGAA,-0.0121
15,TCACGAAA,-0.0451
16,GGAACGCA,-0.0666
17,CGAATCAC,-0.171
18,AGGTTAGC,-0.0885
19,AAAGACTA,0.111
20,GGTATGAA,0.119
21,GGCGGTGA,-0.0749
22,GTGCTGCA,-0.0632
23,CGTCGCTA,0.105
24,ATTAAGCC,0.0195
25,AGGTACAC,-0.106

row,Sequence,binding signal [E-score]
1,AGGAGTAG,0.113
2,CATTGTTA,0.145
3,AAGGTTAG,-0.0372
4,ACGGTCGA,-0.0568
5,AGTCGACC,-0.0544
6,CATGATTC,-0.00639
7,AATCAAGT,0.0582
8,CGTACGAG,-0.023
9,ATATGCTG,0.0765
10,GTCTACCA,0.15
11,AAACTGCT,-0.00271
12,GAAAATTC,-0.0744
13,CTTTCGAA,0.00635
14,AATATAAT,0.23
15,CGTTGTAC,0.108
16,AGAGTAGG,-0.15
17,CCCTCCTA,-0.199
18,CAAGTATC,0.138
19,GCGAGTCC,-0.172
20,AGACTGTC,-0.0186
21,GCTGGGTA,0.0228
22,GATGCGAC,-0.329
23,AGGGAGTC,-0.262
24,AGTAGAGG,-0.235
25,ATCCGTTG,0.0162

row,Sequence,binding signal [E-score]
1,CACATAAA,-0.00301
2,ATGCTGTC,0.00475
3,AAGTCGGG,-0.145
4,CGCAAGCC,-0.217
5,AATTTAGC,0.308
6,AAATTCTC,0.0486
7,AAAGGCTC,-0.211
8,GAGCGTCC,-0.217
9,ACTTAAGA,-0.12
10,AGGTCCAG,-0.149
11,AGCCCGAC,-0.237
12,GAGGAACC,-0.0346
13,AGACATCG,-0.0827
14,GTTGTCTA,-0.0257
15,CCTTGATC,0.0208
16,AAAAGTAG,0.344
17,CTTGTGAA,0.113
18,AAGACCAA,-0.0146
19,GGGATACA,-0.0961
20,ACACAAGA,0.0921
21,CCCCGCCG,-0.287
22,ACAAACCG,-0.027
23,GAAGACGC,-0.202
24,TACCTGAA,-0.017
25,AGACCCAA,-0.00361

row,Sequence,binding signal [E-score]
1,CGTGCTCA,-0.255
2,CCTCTCCA,-0.164
3,TACGGGGA,0.0108
4,ATGGGTTG,0.153
5,CGTGCCTA,-0.157
6,CAAATTTA,0.31
7,CTCTTTTA,0.244
8,CTGATCCC,-0.392
9,AGTACTGG,0.0209
10,ACCTGAGA,-0.151
11,GTAGAACA,0.285
12,CTTGAAAA,-0.0109
13,GTCCAAAC,0.0408
14,AGTAGAAA,0.448
15,CTTTGATC,-0.0822
16,CTGGCTAA,-0.246
17,TAAGATCA,0.2
18,ATACCCAC,0.0954
19,AACCTCGT,-0.0628
20,ATCCACTC,-0.112
21,CATCATTA,0.111
22,GGTTTCTA,0.353
23,AGGAATCA,-0.0157
24,AACGTTAG,0.313
25,AACCGTTC,-0.113

row,Sequence,binding signal [E-score]
1,CGGATATA,0.298
2,GGTACATA,0.192
3,CATTGCAG,-0.272
4,ACCGCAGA,0.0841
5,AGAGCAAA,-0.158
6,CGGGACAA,-0.215
7,ATATCGGG,-0.00669
8,CTCGTGTC,-0.355
9,ACTGACCA,-0.00734
10,CGAGAAAC,0.0352
11,CGCTCCAG,-0.127
12,ATTTTTTA,0.211
13,TCCAGTAA,0.0938
14,AGATCGAT,0.144
15,GCGTTCCA,0.0249
16,AGTTTGGC,0.102
17,CGGAACTA,0.262
18,CATAAATC,0.107
19,AATGGAGG,-0.111
20,CAAGTACG,0.156
21,TGGTTAAA,0.0949
22,AATGCTCT,-0.019
23,AGAGCGTC,-0.177
24,ATCTCCAG,0.0595
25,AGGTAAGC,-0.0609

row,Sequence,binding signal [E-score]
1,ACTTTCTA,0.386
2,AACTCTCT,0.0603
3,AGGGCTCC,-0.227
4,AAACCAAT,0.259
5,AGTATGTC,0.104
6,GATGATTA,0.156
7,CGTACCCC,-0.296
8,ACCAGTAT,0.196
9,ACGTTTCC,-0.131
10,AAGTCAAC,-0.0762
11,ACGTGACC,-0.0609
12,GCTAAGTA,0.227
13,AGCTTGTA,0.13
14,ACAGTTTC,-0.0459
15,ACCTTTAC,0.0906
16,ATAATTTA,0.354
17,AGCCCGAA,0.00241
18,CTGATAGC,0.125
19,CAGACACG,-0.0887
20,ACGCCCTG,-0.35
21,AATTCACT,0.168
22,CCACTGAC,-0.0216
23,ATGTCAAG,-0.0311
24,ACTAGTAT,0.409
25,ACTCAGTA,0.227

row,Sequence,binding signal [E-score]
1,ACATCGTC,0.00981
2,AAAAGCTT,0.0543
3,CACTTGCA,-0.00496
4,GACTCTCC,-0.187
5,CGAAACTC,0.0357
6,GAGGTGCA,-0.184
7,AACACTAA,0.0512
8,AGAAAGTG,0.21
9,CCAACAAA,0.0597
10,CGCGAACG,-0.0781
11,CACCAGAA,0.0326
12,AGCTGTAG,0.038
13,GAAATTGA,0.0348
14,ACATCTCG,-0.0898
15,CATTCGGG,-0.0955
16,ATGGCACC,-0.0965
17,ACCACTAA,0.147
18,CGGTATTA,0.254
19,ATTCAATC,0.12
20,TTAAAGAA,-0.0125
21,ACGGCTGG,-0.189
22,GGGGTCAC,-0.41
23,CATAACAC,0.105
24,TCGAGACA,-0.109
25,CCTCGTGA,-0.0659

row,Sequence,binding signal [E-score]
1,AAGCCTTA,-0.0626
2,ACTAGAGC,0.108
3,ACACCAGC,-0.211
4,ATCGGTGA,-0.0895
5,TATATCAA,0.231
6,CTGCGAGC,-0.0742
7,AACCGCAA,-0.0997
8,AAGCAGGT,-0.000664
9,ACAGGAGT,-0.0353
10,GCGGCGCA,-0.292
11,AGTCTACG,0.0152
12,AAGCGAAT,-0.138
13,CTCACCAC,-0.106
14,GAGCAATA,0.158
15,ATCCTTGA,0.0467
16,GCTTCACA,-0.0519
17,GATTAGCC,-0.0619
18,CGGGCCTC,-0.254
19,AGACCCCA,-0.298
20,ATCTCGCG,0.0418
21,GCAGGCAA,-0.117
22,GCCGACTA,-0.0903
23,GGAGACAC,-0.193
24,AGATCTCC,0.0315
25,CTGCAAAA,0.0588

row,Sequence,binding signal [E-score]
1,GGTCGTAA,0.185
2,ACTCGGCC,-0.106
3,CGGACCAA,-0.0547
4,GCCGAGCC,-0.313
5,CGAACGGC,-0.176
6,CCGTGATC,-0.0994
7,CGTCGCGA,-0.0343
8,CGCTACTA,0.326
9,CACGGCGG,-0.192
10,ACTCGCAT,0.0369
11,GAGTACAC,-0.0815
12,GGCCGCAA,-0.169
13,GAACAGAA,0.109
14,ACTTTCCG,0.0104
15,AATGCCCC,-0.198
16,CGTAGTAA,0.205
17,CACCTACC,0.112
18,CACACGGA,-0.234
19,CGTATGAC,-0.18
20,GATTACGC,-0.13
21,CCAAGGGC,-0.254
22,ATATCGAA,0.192
23,CCAGCACG,-0.0496
24,ACCTGGGC,-0.0242
25,CGCCATCC,-0.127

row,Sequence,binding signal [E-score]
1,ACGTCGTA,0.0376
2,ATCGGCGG,-0.258
3,TGGCAAAA,0.122
4,CTCTCTTA,-0.197
5,ATTATGTA,0.354
6,ATTGAGCC,-0.168
7,CGCCACTA,-0.0108
8,ATGGTCCA,-0.0452
9,CCCTTTTA,-0.101
10,CAACTATA,0.277
11,GTGGAGGA,-0.201
12,GCGTACTA,0.168
13,ACTTGCGG,0.0115
14,CTCGTCCC,-0.227
15,ACGACAGA,-0.103
16,CGATTCCA,-0.0275
17,ATGATCTC,-0.0768
18,GACGTGGA,-0.165
19,AAATTAGC,0.224
20,AATGCGCA,-0.0905
21,TATGGCAA,0.0295
22,AAGGGACT,-0.135
23,CAAAGCGC,-0.0715
24,TGTCTAAA,0.0873
25,TGAGACCA,-0.0997

row,Sequence,binding signal [E-score]
1,ACCACCGC,-0.129
2,AAACAATA,0.286
3,AACTCCCC,-0.117
4,ATAAACGG,0.19
5,GTCTCGGA,-0.0689
6,TATTCACA,0.0873
7,GCAAACGA,-0.0523
8,ATCCATGG,0.113
9,CATTAAGG,-0.0335
10,CTGTAATA,0.334
11,CCTGGAAG,-0.186
12,GGAGTATA,0.0864
13,AGGCAAAG,-0.302
14,CTTTAATC,0.0488
15,AATAACAT,-0.0349
16,AATATCGG,0.258
17,CGCGCTGA,0.0861
18,ACCAATTG,0.178
19,AAGCACAG,-0.113
20,TACTGGGA,0.185
21,AAAACGGT,0.107
22,ACGGGCGG,-0.308
23,CAAGAACG,-0.0599
24,GGTATCCA,-0.00716
25,ATCTAAAG,0.0158

row,Sequence,binding signal [E-score]
1,ATATCTGG,0.0784
2,AGATGCCG,-0.0221
3,GCTAGTCA,0.00343
4,ATAAAGGA,-0.135
5,AGCCTAAC,-0.0286
6,CTACTTAC,0.222
7,CCCACAAG,-0.133
8,ACGGTTTA,0.0675
9,CCTCCCCG,-0.281
10,ATTCTATG,0.088
11,AGGACTAA,-0.023
12,GATATGGC,-0.025
13,ACTCTAGA,0.152
14,ACCTCATC,-0.102
15,GACGCGAA,-0.151
16,CGCTACCC,-0.0512
17,ACGTAGGC,-0.218
18,ACCAGTCT,-0.0619
19,GAGGGGTA,-0.061
20,AGAGCAAT,-0.00294
21,AATCTGAG,-0.00789
22,CGTTACAA,0.159
23,ATAGTAAA,0.357
24,GCGGATCA,-0.15
25,AACCCCTT,-0.234

row,Sequence,binding signal [E-score]
1,GGGTAAGA,-0.111
2,ACTTCCCG,-0.0833
3,CCGATGGC,-0.232
4,CACTCTAG,-0.019
5,CCCTAGTC,-0.246
6,ATTCCGAC,0.0397
7,CTACAACA,0.306
8,GAGCGGGC,-0.32
9,AGTCCAAG,-0.023
10,ATCTGATC,-0.0568
11,AAGGCCGG,-0.208
12,ATAATGTG,0.167
13,AGGAAAAC,-0.105
14,TGAGGGAA,0.0918
15,CTTTCGTA,-0.0555
16,GCCCGCGA,-0.314
17,GTGTACAA,0.213
18,AAGGGATC,-0.238
19,GAGTATCC,-0.0968
